System: rat hippocampal brain slices
Experiment: Rat hippocampal brain slices, OGD and re-oxygenation, cell viability by MTT
Assay type: cell-based
Details: 15 min OGD, 2 h re-oxygenation, GKT136901 0.1 μM, L-NAME 0.3 μM, BAY60-2770 0.01 μM, separately or combined at identical concentrations, vs untreated OGD
Description: Rat Hippocampal Brain Slice Experiments. —2-3 months old adult male Sprague-Dawley rats were used. For hippocampal slices preparation and induction of oxygen deprivation and glucose deprivation (OGD), animals were decapitated and the brains were removed and transferred into ice-cold Krebs bicarbonate dissection buffer containing glucose and sucrose. Thereafter, hippocampi were dissected and sectioned in transverse slices of 250 μm. To stabilize tissue after slicing, slices were transferred to sucrose-free dissection buffer during 45 minutes at 34° C. Then, control group slices were incubated 15 minutes in a Krebs solution. Slices subjected to OGD were incubated in a Krebs buffer pre-bubbled with 95% N2/5% CO2, where 2-deoxyglucose replaced glucose. OGD period was followed by 2 h of re-oxygenation at 37° C. where slices were returned back to an oxygenated Krebs solution containing glucose^8. […] Cellular viability was quantified by their ability to reduce MTT. […] The formazan produced was solubilized by adding 200 μl dimethyl sulfoxide, giving a colored compound whose optical density was measured in an ELISA microplate reader at 540 nm^9. […]

Compound	cell viability (MTT reduction) (listed as BAY)	cell viability (MTT reduction)
O=C(O)CCCCN(CCc1cc(F)ccc1OCc1ccc(-c2ccc(C(F)(F)F)cc2)cc1)Cc1ccc(C(=O)O)cc1 [BAY60-2770]	did restore cell viability to a limited degree if at all	–
COC(=O)[C@@H](N)CCCNC(=N)N[N+](=O)[O-] [L-NAME, N omega-Nitro-L-arginine methyl ester]	–	did restore cell viability to a limited degree if at all
